Experimental data published in the supplement of paper PMC10126150.
Sequences with one replicate were seen in a single cluster, so their values are uncertain.

Test system: ATP
Test: switch fluorescence ratio, 500 uM ATP over buffer (Cy3 cluster intensity, sum of 5 cycles each) (fold (ratio)); higher = stronger signal-on switching upon ATP binding; sequences stand for … in TCGTCGGCAGCGTCAGATGTGTATAAGAGACAGTTTTTTTTTTTTTTTTTTTTTTTTT…TC
Details: aptamer strand: ATP DNA aptamer (quencher-CACCTGGGGGAGTATTGCGGAGGAAGG + anchor), 100 nM annealed; ATP concentration: 500 uM; one replicate
How it was run: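 Cy3-labelled switching-strand clusters on a modified Illumina MiSeq flow-cell were annealed to 100 nM quencher-labelled ATP aptamer and imaged first in selection buffer, then after 15 min with 500 uM ATP at 22 °C. NaOH stripping and re-annealing separated each of five buffer/ATP cycles, and clusters outside 100-1000 RFU were excluded. The fluorescence ratio sums target-cycle Cy3 intensity over buffer-cycle Cy3 intensity per cluster and averages it per switch-domain sequence.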
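Also: ATP exposure 15 min at 22 °C before imaging.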

Which switch fluorescence ratio does the source give for ATGAGTTAGA here?
The switch fluorescence ratio was 1.09.

How did the switch fluorescence ratio turn out when ATGATAACCT was run?
Its switch fluorescence ratio is 1.49.

ATGATACTTG was tested. Which switch fluorescence ratio did it give?
Its switch fluorescence ratio is 1.

How did the switch fluorescence ratio turn out when ATGATAGACG was run?
Its switch fluorescence ratio is 0.99.

ATGATAGCGA was tested. Which switch fluorescence ratio did it give?
Its switch fluorescence ratio is 1.03.

With ATGATCAAAG as the sequence, how does the switch fluorescence ratio read?
Its switch fluorescence ratio is 1.02.

ATGATCTCAT was tested. Which switch fluorescence ratio did it give?
Its switch fluorescence ratio is 0.954.

ATGATGAACA was tested. Which switch fluorescence ratio did it give?
Its switch fluorescence ratio is 0.973.

ATGATGAGAT was tested. Which switch fluorescence ratio did it give?
Its switch fluorescence ratio is 0.974.

ATGATGGAGC was tested. Which switch fluorescence ratio did it give?
The switch fluorescence ratio was 0.922.

ATGATGGAT was tested. Which switch fluorescence ratio did it give?
Its switch fluorescence ratio is 0.947.

For ATGATGTCCT, which switch fluorescence ratio is on record?
The switch fluorescence ratio was 1.01.

How did the switch fluorescence ratio turn out when ATGATTCGGG was run?
Its switch fluorescence ratio is 0.97.

With ATGATTTTCT as the sequence, how does the switch fluorescence ratio read?
The switch fluorescence ratio was 0.989.

Which switch fluorescence ratio does the source give for ATGCAAGAGT here?
The switch fluorescence ratio was 1.05.

Which switch fluorescence ratio does the source give for ATGCAGCTC here?
Its switch fluorescence ratio is 1.16.

For ATGCAGGGGG, which switch fluorescence ratio is on record?
Its switch fluorescence ratio is 1.01.

How did the switch fluorescence ratio turn out when ATGCATGGTG was run?
The switch fluorescence ratio was 1.04.

Which switch fluorescence ratio does the source give for ATGCATTATC here?
The switch fluorescence ratio was 1.27.

For ATGCCAACAC, which switch fluorescence ratio is on record?
The switch fluorescence ratio was 1.12.

For ATGCCGTCCT, which switch fluorescence ratio is on record?
The switch fluorescence ratio was 0.953.

For ATGCCTAAGT, which switch fluorescence ratio is on record?
The switch fluorescence ratio was 0.978.

How did the switch fluorescence ratio turn out when ATGCCTCTTC was run?
Its switch fluorescence ratio is 0.995.

Which switch fluorescence ratio does the source give for ATGCGATTTC here?
The switch fluorescence ratio was 1.08.

How did the switch fluorescence ratio turn out when ATGCGCCGGC was run?
The switch fluorescence ratio was 0.948.

How did the switch fluorescence ratio turn out when ATGCGCTTCG was run?
The switch fluorescence ratio was 0.965.

With ATGCGGCCTG as the sequence, how does the switch fluorescence ratio read?
Its switch fluorescence ratio is 1.02.

For ATGCGTATCG, which switch fluorescence ratio is on record?
The switch fluorescence ratio was 0.939.

For ATGCTAAA, which switch fluorescence ratio is on record?
The switch fluorescence ratio was 0.951.

ATGCTACATC was tested. Which switch fluorescence ratio did it give?
The switch fluorescence ratio was 1.02.

For ATGCTAGGAC, which switch fluorescence ratio is on record?
Its switch fluorescence ratio is 1.06.

ATGCTCTTCC was tested. Which switch fluorescence ratio did it give?
The switch fluorescence ratio was 1.83.

ATGCTGATTT was tested. Which switch fluorescence ratio did it give?
The switch fluorescence ratio was 1.02.

With ATGCTGGGTG as the sequence, how does the switch fluorescence ratio read?
Its switch fluorescence ratio is 1.14.

Which switch fluorescence ratio does the source give for ATGCTTCGGG here?
The switch fluorescence ratio was 1.

With ATGCTTGAG as the sequence, how does the switch fluorescence ratio read?
Its switch fluorescence ratio is 0.981.

With ATGCTTGAGA as the sequence, how does the switch fluorescence ratio read?
The switch fluorescence ratio was 0.993.

For ATGCTTTAGC, which switch fluorescence ratio is on record?
Its switch fluorescence ratio is 0.932.

With ATGGAAACAC as the sequence, how does the switch fluorescence ratio read?
The switch fluorescence ratio was 1.04.

With ATGGAACTAC as the sequence, how does the switch fluorescence ratio read?
The switch fluorescence ratio was 1.11.

With ATGGAAGACC as the sequence, how does the switch fluorescence ratio read?
The switch fluorescence ratio was 1.04.

With ATGGAATCAT as the sequence, how does the switch fluorescence ratio read?
Its switch fluorescence ratio is 0.947.

For ATGGAATCTT, which switch fluorescence ratio is on record?
The switch fluorescence ratio was 0.992.

ATGGACAAA was tested. Which switch fluorescence ratio did it give?
Its switch fluorescence ratio is 1.01.

For ATGGACATAA, which switch fluorescence ratio is on record?
Its switch fluorescence ratio is 1.05.

ATGGACGGCA was tested. Which switch fluorescence ratio did it give?
The switch fluorescence ratio was 1.06.

Which switch fluorescence ratio does the source give for ATGGAGACAA here?
The switch fluorescence ratio was 1.08.

How did the switch fluorescence ratio turn out when ATGGAGATGC was run?
Its switch fluorescence ratio is 1.05.

ATGGAGCAGC was tested. Which switch fluorescence ratio did it give?
Its switch fluorescence ratio is 1.14.

Which switch fluorescence ratio does the source give for ATGGCAAATA here?
The switch fluorescence ratio was 1.05.

How did the switch fluorescence ratio turn out when ATGGCATTGT was run?
Its switch fluorescence ratio is 0.991.

Which switch fluorescence ratio does the source give for ATGGCCCCTT here?
The switch fluorescence ratio was 1.02.

ATGGCCGCCA was tested. Which switch fluorescence ratio did it give?
Its switch fluorescence ratio is 0.984.

With ATGGCGATTA as the sequence, how does the switch fluorescence ratio read?
Its switch fluorescence ratio is 0.964.

ATGGCGCGAC was tested. Which switch fluorescence ratio did it give?
The switch fluorescence ratio was 1.

Which switch fluorescence ratio does the source give for ATGGCGCGTG here?
Its switch fluorescence ratio is 0.97.

With ATGGCGCTGA as the sequence, how does the switch fluorescence ratio read?
The switch fluorescence ratio was 1.01.

ATGGCGGAGG was tested. Which switch fluorescence ratio did it give?
Its switch fluorescence ratio is 1.02.

Which switch fluorescence ratio does the source give for ATGGCGGGTG here?
The switch fluorescence ratio was 0.987.

ATGGCTATG was tested. Which switch fluorescence ratio did it give?
The switch fluorescence ratio was 1.01.

With ATGGCTCTG as the sequence, how does the switch fluorescence ratio read?
The switch fluorescence ratio was 0.996.

ATGGCTGAAG was tested. Which switch fluorescence ratio did it give?
Its switch fluorescence ratio is 1.01.

For ATGGGCAGGA, which switch fluorescence ratio is on record?
The switch fluorescence ratio was 1.25.

ATGGGCCTAT was tested. Which switch fluorescence ratio did it give?
The switch fluorescence ratio was 1.05.

How did the switch fluorescence ratio turn out when ATGGGCTTTT was run?
The switch fluorescence ratio was 0.985.

With ATGGGGATGC as the sequence, how does the switch fluorescence ratio read?
Its switch fluorescence ratio is 1.05.

With ATGGGGCGGT as the sequence, how does the switch fluorescence ratio read?
Its switch fluorescence ratio is 0.923.

Which switch fluorescence ratio does the source give for ATGGGGTCCG here?
The switch fluorescence ratio was 0.971.

Which switch fluorescence ratio does the source give for ATGGGTAACT here?
Its switch fluorescence ratio is 0.947.

ATGGGTAGCG was tested. Which switch fluorescence ratio did it give?
The switch fluorescence ratio was 1.16.

ATGGTAAAAC was tested. Which switch fluorescence ratio did it give?
The switch fluorescence ratio was 1.04.

For ATGGTCTGTG, which switch fluorescence ratio is on record?
Its switch fluorescence ratio is 0.958.

How did the switch fluorescence ratio turn out when ATGGTGAAA was run?
Its switch fluorescence ratio is 0.991.

ATGGTGACGC was tested. Which switch fluorescence ratio did it give?
Its switch fluorescence ratio is 1.09.

Which switch fluorescence ratio does the source give for ATGGTGATGA here?
Its switch fluorescence ratio is 0.995.

ATGGTGCGTA was tested. Which switch fluorescence ratio did it give?
The switch fluorescence ratio was 1.12.

For ATGGTGGCTC, which switch fluorescence ratio is on record?
Its switch fluorescence ratio is 1.01.

With ATGGTGGGTA as the sequence, how does the switch fluorescence ratio read?
Its switch fluorescence ratio is 0.976.

How did the switch fluorescence ratio turn out when ATGGTGTCAC was run?
Its switch fluorescence ratio is 0.998.

Which switch fluorescence ratio does the source give for ATGGTTAAAC here?
The switch fluorescence ratio was 1.02.

ATGGTTCGG was tested. Which switch fluorescence ratio did it give?
The switch fluorescence ratio was 0.964.

For ATGGTTTCCG, which switch fluorescence ratio is on record?
The switch fluorescence ratio was 1.

With ATGGTTTCTG as the sequence, how does the switch fluorescence ratio read?
Its switch fluorescence ratio is 0.951.

How did the switch fluorescence ratio turn out when ATGGTTTTGG was run?
The switch fluorescence ratio was 1.

ATGTAAACCT was tested. Which switch fluorescence ratio did it give?
The switch fluorescence ratio was 3.05.

For ATGTAATCGG, which switch fluorescence ratio is on record?
The switch fluorescence ratio was 0.989.

With ATGTACACCA as the sequence, how does the switch fluorescence ratio read?
Its switch fluorescence ratio is 1.09.

How did the switch fluorescence ratio turn out when ATGTACATAT was run?
The switch fluorescence ratio was 1.03.

With ATGTACCGGG as the sequence, how does the switch fluorescence ratio read?
Its switch fluorescence ratio is 1.09.

For ATGTACCTAA, which switch fluorescence ratio is on record?
The switch fluorescence ratio was 1.19.

Which switch fluorescence ratio does the source give for ATGTAGTTGC here?
The switch fluorescence ratio was 1.02.

For ATGTATAGTA, which switch fluorescence ratio is on record?
The switch fluorescence ratio was 1.01.

For ATGTATCAGT, which switch fluorescence ratio is on record?
The switch fluorescence ratio was 1.03.

Which switch fluorescence ratio does the source give for ATGTATCATC here?
The switch fluorescence ratio was 0.997.

Which switch fluorescence ratio does the source give for ATGTATTCTC here?
The switch fluorescence ratio was 0.99.

How did the switch fluorescence ratio turn out when ATGTCAAGTC was run?
The switch fluorescence ratio was 1.04.

How did the switch fluorescence ratio turn out when ATGTCCACAA was run?
Its switch fluorescence ratio is 1.21.

Which switch fluorescence ratio does the source give for ATGTCGGGGG here?
The switch fluorescence ratio was 1.13.

Which switch fluorescence ratio does the source give for ATGTCGTTTT here?
Its switch fluorescence ratio is 0.963.

With ATGTCTCATG as the sequence, how does the switch fluorescence ratio read?
Its switch fluorescence ratio is 0.999.
